Values joined by “and” are separate entries in the source; they are usually repeats but may differ in a detail not shown here. Identical values can stand only once. Counter-ions that a name gives are not always drawn. Among all 5,800 compounds or so, about 620 (11%) showed activity.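 The calls were made as follows: active = score above a cut-off or among the top three wells of a plate; in these data no inactive exceeds 0.85.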 The list shows a part of the results, in another mix than the full data.

The subject of the assay is primary human hepatic stellate cells (donor 1). The assay is described as follows: scaled lipid accumulation score (0 = DMSO-like, 1 = nortriptyline-like); higher = stronger HSC inactivation (lipid re-accumulation), active = hit call of the paper. To be noted: 48 h.
[1] abbreviates: library stock concentration: 10 mM.
Where [2] appears, read: library stock concentration: 3.33 mM.
The mark [3] stands for this setting: library stock concentration: 1 mM.
The mark [4] stands for this setting: library stock concentration: 80 uM.
Where [5] appears, read: library stock concentration: 400 uM.
Where [6] appears, read: library stock concentration: 2 mM.
Setting [7] is: library stock concentration: 4.8 mM.
The mark [8] stands for this setting: library stock concentration: 7.5 mM.

For `O=C(O)Cc1cc(I)c(Oc2ccc(O)c(I)c2)c(I)c1`, the “scaled lipid accumulation score” value under setting [1] was inactive: 0.002.
As to `O=C(O)Cc1cc(I)c(Oc2ccc(O)c(I)c2)c(I)c1` [Tiratricol], the “scaled lipid accumulation score” value was inactive: ≤ 0 under setting [2] and inactive: ≤ -0.001 under setting [1].
`O=C(O)Cc1cc(I)c(Oc2ccc(O)c(I)c2)c(I)c1` [Tiratricol, 3,3',5-triiodothyroacetic acid]: the “scaled lipid accumulation score” value was inactive: 0.108.
Take `COCCCOc1ccnc(C[S+]([O-])c2nc3ccccc3[nH]2)c1C` (stereo not given): under setting [1], the “scaled lipid accumulation score” value is inactive: ≤ 0.
Consider `COCCCOc1ccnc(C[S+]([O-])c2nc3ccccc3[nH]2)c1C` (stereo not given) [Rabeprazole sodium], for which, for the setting “library stock concentration: 5.2 mM”, the “scaled lipid accumulation score” value was inactive: ≤ 0.
On to `CC(C)C1C2CCC(C2)C1N` (stereo not given), for which the “scaled lipid accumulation score” value under setting [1] was inactive: 0.338.
Still for that read-out and setting: to `Nc1c(S(=O)(=O)O)cc(Nc2ccc(Nc3nc(Cl)nc(Nc4cccc(S(=O)(=O)O)c4)n3)c(S(=O)(=O)O)c2)c2c1C(=O)c1ccccc1C2=O` [Reactive Blue 2] belongs inactive: ≤ 0; to `CO[C@@H]1[C@H](O)[C@@H](CO)O[C@H]1n1cnc2c(NC3CCCCC3)ncnc21`, inactive: ≤ -0.001.
As for `Cc1c(C)c2c(c(C)c1O)CCC(C)(CCCC(C)C(=O)O)O2` (stereo not given), under setting [3], the “scaled lipid accumulation score” value was inactive: ≤ 0.
With `Cc1ccc(C(=O)C(C)CN2CCCCC2)cc1` (stereo not given) [Tolperisone hydrochloride], under setting [1], the “scaled lipid accumulation score” value is inactive: ≤ 0.
`Cc1ccc(C(=O)C(C)CN2CCCCC2)cc1` (stereo not given) [Tolperisone HCl]: the “scaled lipid accumulation score” value was inactive: ≤ 0 under setting [2] and inactive: ≤ -0.001 under setting [1].
Regarding `Cc1cc(CN2CCN(c3c(Br)cnc4[nH]c(-c5ccc(N6CCN(C)CC6)cc5)nc34)CC2)no1`, the “scaled lipid accumulation score” value under setting [2] is active: 0.857.
Regarding `COc1ccc(/C=C/c2cc(Cl)cc(Cl)c2)cc1`, the “scaled lipid accumulation score” value under setting [3] is inactive: ≤ 0.
For `O=C(CCCCC(=O)Nc1c(I)cc(I)c(C(=O)O)c1I)Nc1c(I)cc(I)c(C(=O)O)c1I` [Iodipamide], the “scaled lipid accumulation score” value was inactive: 0.041. Moreover, the “scaled lipid accumulation score” value under setting [1] was inactive: ≤ 0.
In the case of `CN(C)Cc1c(C(=O)NCCOc2ccc(C(=O)NO)cc2)oc2ccccc12`, the “scaled lipid accumulation score” value runs as follows: under setting [2], active: 0.855; under setting [1], active: 1.01.
Consider `N=C(N)SCCN` [S-(2-aminoethyl) Isothiourea (dihydrobromide)], for which, under setting [3], the “scaled lipid accumulation score” value was inactive: 0.085.
For `N=C(N)SCCN` [2-(2-Aminoethyl)isothiourea dihydrobromide], the “scaled lipid accumulation score” value under setting [1] is inactive: 0.026.
Regarding `Nc1nccc(-c2ccc3noc(-c4ccc(Cl)cc4)c3c2)n1` [PIM 1 Inhibitor 2], the “scaled lipid accumulation score” value under setting [1] is inactive: ≤ 0.
For `CCCCC1C(=O)N(c2ccccc2)N(c2ccccc2)C1=O` [Phenylbutazone], the “scaled lipid accumulation score” value runs as follows: under setting [3], inactive: ≤ 0; under setting [2], inactive: ≤ 0; under setting [1], inactive: ≤ 0.
On to `CN(C)c1cc(NC(=O)CNC(C)(C)C)c(O)c2c1CC1CC3C(N(C)C)C(=O)C(C(N)=O)=C(O)C3(O)C(=O)C1=C2O` (stereo not given) [Tigecycline], for which the “scaled lipid accumulation score” value was inactive: ≤ 0 under setting [2] and inactive: ≤ 0 under setting [1].
Take `O=C(Nc1ccc2[nH]nc(-c3ccncc3)c2c1)[C@@H]1CCN(CC(=O)N2CCN(c3ccc(-c4ncccn4)cc3)CC2)C1`: the “scaled lipid accumulation score” value reads like this: under setting [4], inactive: ≤ -0.001; under setting [5], inactive: ≤ -0.001; under setting [6], inactive: ≤ -0.001.
On to `CCCc1nc2c(C)cc(-c3nc4ccccc4n3C)cc2n1Cc1ccc(-c2ccccc2C(=O)O)cc1`, for which the “scaled lipid accumulation score” value under setting [1] is inactive: ≤ 0.
As to `CCCc1nc2c(C)cc(-c3nc4ccccc4n3C)cc2n1Cc1ccc(-c2ccccc2C(=O)O)cc1` [Telmisartan], the “scaled lipid accumulation score” value by setting is: under setting [2], inactive: ≤ 0; under setting [1], inactive: ≤ 0 and inactive: 0.042.
In the case of `O=C(O)Cc1ccc(O)c(O)c1` [3,4-Dihydroxyphenylacetic acid], the “scaled lipid accumulation score” value under setting [1] was inactive: ≤ -0.07.
Same read-out and setting: to `CNCCCCOc1ccccc1Cc1ccccc1` [Bifemelane] belongs active: 1.08.
Take `COCCCOc1cc(C[C@@H](C[C@H](N)[C@@H](O)C[C@H](C(=O)NCC(C)(C)C(N)=O)C(C)C)C(C)C)ccc1OC` [Aliskiren Hemifumarate]: the “scaled lipid accumulation score” value was inactive: 0.014 under setting [2] and inactive: 0.027 under setting [1].
As for `COCCCOc1cc(C[C@@H](C[C@H](N)[C@@H](O)C[C@H](C(=O)NCC(C)(C)C(N)=O)C(C)C)C(C)C)ccc1OC`, the “scaled lipid accumulation score” value under setting [1] is inactive: ≤ 0.
As for `CCCCOC(=O)c1ccc(O)cc1` [Butylparaben], the “scaled lipid accumulation score” value was inactive: ≤ 0.
In the case of `C#C[C@]1(OC(C)=O)CC[C@H]2[C@@H]3CCC4=CC(=O)CC[C@@H]4[C@H]3CC[C@@]21C` [Norethindrone acetate], the “scaled lipid accumulation score” value runs as follows: (library stock concentration: 5.9 mM) inactive: ≤ -0.001; under setting [1], inactive: ≤ 0.
For `C#C[C@]1(OC(C)=O)CC[C@H]2[C@@H]3CCC4=CC(=O)CC[C@@H]4[C@H]3CC[C@@]21C`, the “scaled lipid accumulation score” value under setting [1] was inactive: 0.369.
With `OCCC#Cc1nc(-c2ccc(F)cc2)c(-c2ccncc2)n1CCCc1ccccc1`, the “scaled lipid accumulation score” value is, setting by setting: under setting [5], inactive: ≤ -0.005; under setting [6], inactive: ≤ -0.005; under setting [1], inactive: 0.668.
Take `CCCCC[C@](C)(O)/C=C/[C@@H]1[C@@H](C/C=C\CCCC(=O)O)[C@@H](O)C[C@H]1O` [15(S)-15-methyl Prostaglandin F2.alpha.]: the “scaled lipid accumulation score” value under setting [3] is inactive: ≤ 0.
As for `CC(=O)/N=c1/sc(S(N)(=O)=O)nn1C` [Methazolamide], the “scaled lipid accumulation score” value was inactive: ≤ 0. Besides, the “scaled lipid accumulation score” value under setting [2] is inactive: ≤ 0. The “scaled lipid accumulation score” value under setting [1] is inactive: ≤ -0.001 and inactive: ≤ -0.014 and inactive: ≤ 0.
`Cc1ccc(C(=O)N(CCCN)[C@@H](c2nc3cc(Cl)ccc3c(=O)n2Cc2ccccc2)C(C)C)cc1`: the “scaled lipid accumulation score” value runs as follows: under setting [2], inactive: 0.21; under setting [1], inactive: 0.262.
With `N=C(N)N1CCc2ccccc2C1` [Debrisoquin sulfate], the “scaled lipid accumulation score” value is inactive: ≤ 0. Besides, the “scaled lipid accumulation score” value (library stock concentration: 7.3 mM) is inactive: ≤ 0. For the same compound, the “scaled lipid accumulation score” value under setting [1] was inactive: ≤ -0.07.
As for `Cc1ccc2nc(NCCN)c3ncc(C)n3c2c1`, the “scaled lipid accumulation score” value under setting [4] is inactive: ≤ 0; the “scaled lipid accumulation score” value under setting [5] was inactive: ≤ 0; the “scaled lipid accumulation score” value under setting [6] was inactive: ≤ 0; the “scaled lipid accumulation score” value under setting [2] is inactive: ≤ -0.009; the “scaled lipid accumulation score” value under setting [1] is inactive: 0.422 and inactive: 0.531.
Turning to `CC(C)(C)c1ccc(S(=O)(=O)/C=C/C#N)cc1`, the “scaled lipid accumulation score” value under setting [1] was active: 1.12.
For `CC(C[N+](C)(C)C)OC(N)=O` (stereo not given) [Bethanechol chloride], the “scaled lipid accumulation score” value was inactive: ≤ 0. Moreover, the “scaled lipid accumulation score” value under setting [2] was inactive: 0.009. Under setting [1], the “scaled lipid accumulation score” value was inactive: ≤ 0 and inactive: 0.166.
Regarding `CC(C[N+](C)(C)C)OC(N)=O` (stereo not given) [Urecholine], the “scaled lipid accumulation score” value under setting [1] was inactive: ≤ 0.
As to `O=C1C(Cl)=C(N2C(=O)CCC2=O)C(=O)c2ccccc21` [MEK Inhibitor II], under setting [2], the “scaled lipid accumulation score” value is inactive: 0.073.
Take `COc1ccc(C[C@H](NC(=O)[C@H](C)NC(=O)CN2CCOCC2)C(=O)N[C@@H](Cc2ccccc2)C(=O)[C@@]2(C)CO2)cc1`: the “scaled lipid accumulation score” value reads like this: under setting [2], inactive: 0.535; under setting [1], inactive: 0.603.
`C=CCc1ccc(O)c(-c2cc(CC=C)ccc2O)c1` [Magnolol]: the “scaled lipid accumulation score” value is inactive: ≤ 0 under setting [2] and inactive: 0.538 under setting [1].
Turning to `COc1ccc2c(c1)C(=O)N(CCc1ccc(S(=O)(=O)NC(=O)NC3CCCCC3)cc1)C(=O)C2(C)C` [Gliquidone], the “scaled lipid accumulation score” value was inactive: ≤ 0.
Take `CCCCCCCCCCOc1cc2c(O)c(C(=O)OCC)cnc2cc1OCC` [Decoquinate]: the “scaled lipid accumulation score” value under setting [7] was inactive: ≤ 0.
In the case of `CN(C)CCN(Cc1ccc(Cl)cc1)c1ccccn1` [Chloropyramine hydrochloride], the “scaled lipid accumulation score” value was inactive: 0.325.
Take `CC(C)c1cccc(=O)c(O)c1` [Hinokitiol]: the “scaled lipid accumulation score” value (library stock concentration: 30.5 mM) is inactive: 0.187.
As to `NS(=O)(=O)Cc1noc2ccccc12` [Zonisamide], the “scaled lipid accumulation score” value reads like this: under setting [2], inactive: 0.04; (library stock concentration: 9.4 mM) inactive: ≤ -0.006; under setting [1], inactive: 0.005 and inactive: 0.017 and inactive: ≤ 0.
For `CC(=N)NCc1cccc(CN)c1` [1400W dihydrochloride], the “scaled lipid accumulation score” value under setting [1] was inactive: ≤ -0.006.
In the case of `CCCCC/C=C/C=C1/C=CC(=O)[C@@H]1CCCCCCC(=O)O` [15-deoxy-.DELTA.12,14-Prostaglandin A1], the “scaled lipid accumulation score” value under setting [3] was inactive: ≤ 0.
For `C[C@H](NC[C@H](O)CP(=O)(O)Cc1ccccc1)c1ccc(Cl)c(Cl)c1`, the “scaled lipid accumulation score” value under setting [1] is inactive: ≤ -0.006.
For `CC(=O)c1cc([N+](=O)[O-])c(Sc2ccc(F)cc2F)s1`, the “scaled lipid accumulation score” value under setting [2] was inactive: ≤ -0.009 and the “scaled lipid accumulation score” value under setting [1] was inactive: ≤ 0.
Consider `COc1ccc([C@@H]2Sc3ccccc3N(CCN(C)C)C(=O)[C@@H]2OC(C)=O)cc1`, for which, under setting [1], the “scaled lipid accumulation score” value was inactive: 0.508.
With `COc1ccc([C@@H]2Sc3ccccc3N(CCN(C)C)C(=O)[C@@H]2OC(C)=O)cc1` [Diltiazem hydrochloride], the “scaled lipid accumulation score” value is inactive: 0.165. Further, for the setting “library stock concentration: 4.4 mM”, the “scaled lipid accumulation score” value was inactive: 0.107. Moreover, the “scaled lipid accumulation score” value under setting [1] was inactive: 0.492 and inactive: 0.353 and inactive: 0.361.
In the case of `COc1ccc([C@@H]2Sc3ccccc3N(CCN(C)C)C(=O)[C@@H]2OC(C)=O)cc1` [Diltiazem HCl], the “scaled lipid accumulation score” value is, setting by setting: under setting [2], inactive: 0.041; under setting [1], inactive: 0.547.
On to `COc1ccc([C@@H]2Sc3ccccc3N(CCN(C)C)C(=O)[C@@H]2OC(C)=O)cc1` [Diltiazem], for which the “scaled lipid accumulation score” value under setting [7] was inactive: 0.276.
Consider `Cc1cn([C@H]2C[C@H](N=[N+]=[N-])[C@@H](CO)O2)c(=O)[nH]c1=O` [3'-Azido-3'-deoxythymidine], for which, under setting [1], the “scaled lipid accumulation score” value was inactive: 0.071.
Turning to `Cc1cn([C@H]2C[C@H](N=[N+]=[N-])[C@@H](CO)O2)c(=O)[nH]c1=O` [3'-azido-3'-deoxythymidine], under setting [8], the “scaled lipid accumulation score” value is inactive: ≤ 0.
Regarding `Cc1cn([C@H]2C[C@H](N=[N+]=[N-])[C@@H](CO)O2)c(=O)[nH]c1=O` [Zidovudine], the “scaled lipid accumulation score” value by setting is: under setting [2], inactive: 0.038; under setting [1], inactive: ≤ 0.
On to `Cc1cn([C@H]2C[C@H](N=[N+]=[N-])[C@@H](CO)O2)c(=O)[nH]c1=O` [Zidovudine, AZT], for which the “scaled lipid accumulation score” value was inactive: 0.142.
`Cc1cn([C@H]2C[C@H](N=[N+]=[N-])[C@@H](CO)O2)c(=O)[nH]c1=O`: under setting [1], the “scaled lipid accumulation score” value is inactive: ≤ 0.
With `Cc1cn([C@H]2C[C@H](N=[N+]=[N-])[C@@H](CO)O2)c(=O)[nH]c1=O` [Zidovudine [azt]], the “scaled lipid accumulation score” value is inactive: ≤ 0 under setting [8] and inactive: ≤ 0 under setting [1].
On to `COc1cc(N)c(Cl)cc1C(=O)CCC1CCN(CCNS(C)(=O)=O)CC1`, for which, under setting [1], the “scaled lipid accumulation score” value was inactive: ≤ 0.
For the compound `CCCNC(C)C(=O)Nc1c(C)csc1C(=O)OC` (stereo not given) [Articaine hydrochloride], the “scaled lipid accumulation score” value is inactive: ≤ 0.
Turning to `CCCNC(C)C(=O)Nc1c(C)csc1C(=O)OC` (stereo not given) [Articaine HCl], the “scaled lipid accumulation score” value is inactive: ≤ 0 under setting [2] and inactive: ≤ -0.001 under setting [1].

The values above are taken from the supplement of paper PMC9135407.
